# Reference: PubChem BioAssay AID652104 (National Center for Advancing Translational Sciences (NCATS), 2013)
# Among all 410,000 compounds or so, about 7,200 (1.8%) were called active. The inconclusive results got no clear call from the source; some entries with a clear call stand among them for comparison. The call rests on the fitted dose curve; in most records, active means well fitted activation curve with a large enough effect; inconclusive means small, poorly fitted or top-dose-only effect, or another doubt; inactive means no such curve, though single readings can be large or run the other way. Potencies of inconclusive entries are left out as doubtful fits.
# Assay: qHTS of TDP-43 Inhibitors; further: nearly all actives have a fitted effect of over 50% in size; on growth rescue (activation): % of control where 0% means no effect
# Details: TDP-43 expressing yeast growth rescue, BacTiter-Glo, 24 h; growth rescue (activation): at 46.1 µM (top of the series) unless noted
# In short: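 Readout is BacTiter-Glo luminescence of cell growth, so inhibitors register as activators. TDP-43-expressing yeast at OD600=0.02 in galactose medium, after raffinose pregrowth to mid-log, were incubated with compound for 24 hr at 30 deg C.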
# Potency means the concentration at half of the fitted maximal effect; tags describe the fitted curve by direction and shape.
Compound,Potency,growth rescue (activation)
COCCNC(=O)CCc1c(C)nc2c(c(C)nn2-c2ccc(C)cc2)c1C,"inconclusive [activator, partial curve]",–
CSc1ccc(Cl)c(C(=O)N2CCN(c3ncccn3)CC2)c1,"inconclusive [activator, partial curve]",–
CN(C)c1ccccc1C(=O)N1CCCC(C(=O)c2ccc3ccccc3c2)C1 (stereo not drawn),"inconclusive [activator, single point]",–
CC(C)(C)C1CCc2sc(C(=O)NNC(=O)CCl)cc2C1 (stereo not drawn),active: 12.6 µM,–
O=C(C(=O)N1CCCC1)c1c(-c2ccccc2)[nH]c2ccccc12,inactive,–
Cc1cc(C)cc(CC2CC(=O)N(c3cc(C)on3)C2=O)c1 (stereo not drawn),"inconclusive [activator, partial curve, poor fit]",–
O=C(COc1ccc(F)cc1)N1CCC(Cc2ccccc2)CC1,"inconclusive [activator, partial curve]",–
CCOc1ccccc1NC(=S)NCCc1ccccc1,"inconclusive [activator, full curve]",–
CSc1ncc(Cl)c(C(=O)Nc2ccc(S(=O)(=O)N3CCCC(C)C3)cc2)n1 (stereo not drawn),"inconclusive [activator, full curve]",–
CCC(Sc1nc2nccnc2c(=O)n1Cc1ccc(F)cc1)C(=O)NC1CCCCC1 (stereo not drawn),"inconclusive [activator, full curve]",–
CCC(C(=O)OC)n1cnc2c(cnn2-c2ccc(F)cc2)c1=O (stereo not drawn),"inconclusive [activator, partial curve]",–
Cc1ccc(OCC(=O)N/N=C/C=C/c2ccco2)cc1C,"inconclusive [activator, single point]",–
O=C(COc1ccccc1)NCCSc1ccccc1,"inconclusive [activator, partial curve]",–
O=C(C1CCN(S(=O)(=O)c2cccc3nonc23)CC1)N1CCN(c2ccccc2F)CC1,"inconclusive [activator, single point]",–
CCc1ccccc1Oc1nc(NC(C)C)nc2ccsc12,active: 20 µM,–
Nc1cc(C(=O)O)ccc1Nc1ccccc1,"inconclusive [activator, single point]",–
COc1ccc(NC(=O)N2CCC(c3ccccc3)C2)c(OC)c1 (stereo not drawn),"inconclusive [activator, partial curve, poor fit]",–
COc1ccc(CCNC(=O)CCCn2c(=O)c3ccccc3n(Cc3ccc(C)cc3)c2=O)cc1OC,"inconclusive [activator, partial curve, poor fit]",–
CC(=O)c1c(C)[nH]c(C(=O)COC(=O)CCOc2ccc(C)cc2)c1C,–,inconclusive: 39.4% [activator]
COc1ccccc1N1CCN(C(=O)c2ccc(CSc3ccccc3)cc2)CC1,"inconclusive [activator, partial curve, poor fit]",–
CCCCn1c(N)c(N(CCOC)C(=O)CN(C)CC(=O)Nc2ccc(Cl)c(Cl)c2)c(=O)[nH]c1=O,inactive,–
COc1ccc(CN2CCNC(=O)C2CC(=O)NCCCn2cccn2)c(OC)c1 (stereo not drawn),inactive,–

Compound,Potency,growth rescue (activation)
COc1ccc(C)cc1NC(=O)COCc1cc(-c2cccs2)on1,"inconclusive [activator, single point]",–
CCN(CC)S(=O)(=O)c1nnc(NC(=O)c2ccccc2Cl)s1,"inconclusive [activator, single point]",–
Cc1noc(C(=O)N2CCN(c3ccccc3)CC2)c1Cl,"inconclusive [activator, partial curve]",–
CCCC(=O)NC1=C(C#N)C2(CCCCC2)Cc2ccccc21,"inconclusive [activator, partial curve]",–
O=C(NCc1ccco1)c1ccccc1-c1ccccc1,"inconclusive [activator, single point]",–
Cc1ccc(-c2nnc(-c3cccs3)o2)cc1,"inconclusive [activator, partial curve]",–
CCc1ccccc1Nc1nc(N)nc(COC(=O)CCS(=O)(=O)c2ccccc2)n1,"inconclusive [activator, partial curve]",–
O=C(c1ccc(Cl)cc1)N(Cc1ccco1)Cc1ccco1,"inconclusive [activator, partial curve]",–
Cc1nn2c(C)c(C(=O)N3CCN(c4ccccc4)CC3)cnc2c1-c1ccccc1,"inconclusive [activator, partial curve]",–
Oc1c(Br)cc(Br)cc1/C=N/c1nccs1,"inconclusive [activator, single point]",–
CCCOc1ccccc1N/C(=N/c1nc(C)cc(C)n1)NC(=O)COc1ccc(OC)cc1,active: 2.24 µM,–
COc1ccccc1NC(=S)NC1CCCCC1,"inconclusive [activator, single point]",–
CCN1CCN(CCCNC(=O)c2cc3c(=O)n(CC)c4ccccc4c3s2)CC1,inactive,–
Cc1cccc(N/N=C/c2ccccc2O)c1,"inconclusive [activator, single point]",–
CCN(CC)c1nc(C)c(C(C)=O)cc1C#N,"inconclusive [activator, partial curve]",–
O=C(Nc1ncc(Cc2cccc(C(F)(F)F)c2)s1)C1CCCO1 (stereo not drawn),"inconclusive [activator, single point]",–
COc1ccc(-c2cc(C(F)(F)F)nc(SCC(=O)N(C)Cc3ccccc3)n2)cc1OC,"inconclusive [activator, partial curve]",–
Cc1ccc(OCC(=O)N(Cc2cccs2)C2CCS(=O)(=O)C2)cc1C (stereo not drawn),inactive,–
Cc1cc(-c2c(C)[nH]n(-c3ccc(Cl)cc3)c2=O)n[nH]1,active: 22.4 µM,–
O=C(c1cc2ccc3cccnc3c2[nH]1)N1CCN(c2cccc(C(F)(F)F)c2)CC1,"inconclusive [activator, partial curve]",–
CCCc1cc(=O)[nH]c(SCc2ccccc2)n1,"inconclusive [activator, single point]",–
